Test results reported in paper PMC4336329 (PLoS ONE, 2015).
In all, about 310,000 compounds went through this assay and about 2,200 (0.71%) showed an effect of 50% or more. Effects have a minus sign here. The list shows a part of the results.

What follows are molecules tested against human ether-à-go-go-related gene (hERG) potassium channel (human, UniProt Q12809) (assay: primary screen, population patch clamp on CHO cells stably expressing hERG).
Sequence of human ether-à-go-go-related gene (hERG) potassium channel (Q12809 whole entry, looked up): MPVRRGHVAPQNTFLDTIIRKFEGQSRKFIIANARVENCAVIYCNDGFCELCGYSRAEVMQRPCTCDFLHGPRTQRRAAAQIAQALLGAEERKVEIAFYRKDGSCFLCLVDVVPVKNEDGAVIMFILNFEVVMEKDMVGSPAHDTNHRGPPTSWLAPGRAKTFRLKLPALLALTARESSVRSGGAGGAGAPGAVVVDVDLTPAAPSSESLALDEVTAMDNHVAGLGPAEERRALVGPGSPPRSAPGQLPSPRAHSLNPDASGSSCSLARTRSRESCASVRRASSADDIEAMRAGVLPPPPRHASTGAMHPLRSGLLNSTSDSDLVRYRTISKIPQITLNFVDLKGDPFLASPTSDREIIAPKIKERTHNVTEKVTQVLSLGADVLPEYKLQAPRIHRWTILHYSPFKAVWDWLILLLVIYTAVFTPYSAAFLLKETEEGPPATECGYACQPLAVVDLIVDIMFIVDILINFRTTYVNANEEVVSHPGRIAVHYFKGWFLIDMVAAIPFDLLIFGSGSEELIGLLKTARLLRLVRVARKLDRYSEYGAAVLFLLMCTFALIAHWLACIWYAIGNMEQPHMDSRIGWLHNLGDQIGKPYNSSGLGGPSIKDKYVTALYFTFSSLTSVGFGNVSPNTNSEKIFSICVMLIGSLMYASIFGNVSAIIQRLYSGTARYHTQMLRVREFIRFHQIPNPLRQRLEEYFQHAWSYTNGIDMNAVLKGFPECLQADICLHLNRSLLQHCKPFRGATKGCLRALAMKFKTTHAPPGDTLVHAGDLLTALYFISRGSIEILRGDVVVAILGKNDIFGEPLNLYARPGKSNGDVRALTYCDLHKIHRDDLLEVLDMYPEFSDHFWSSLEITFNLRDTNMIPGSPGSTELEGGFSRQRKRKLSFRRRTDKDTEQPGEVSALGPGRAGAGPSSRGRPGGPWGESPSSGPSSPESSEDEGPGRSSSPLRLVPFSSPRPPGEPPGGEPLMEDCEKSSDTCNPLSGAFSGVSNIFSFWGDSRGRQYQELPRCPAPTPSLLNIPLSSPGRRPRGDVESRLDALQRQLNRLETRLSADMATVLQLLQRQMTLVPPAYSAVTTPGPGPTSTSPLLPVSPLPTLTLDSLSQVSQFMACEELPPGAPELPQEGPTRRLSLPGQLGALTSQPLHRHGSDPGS

Compound | hERG current change (%, negative = inhibition) at 1uM [%]
Cc1ccc(CNn2cnnc2SCc2ccc(F)cc2)cc1 | -3.08
O=C1/C(=C/c2cccnc2)SC(=S)N1C1CCS(=O)(=O)C1 (centres unmarked) | 5.29
CCOC(=O)c1c(-c2ccccc2)csc1NC(=O)CSc1nnc(C)s1 | 17.2
CCOc1ccc(NC(=O)CN(C)C(=O)Cn2c(=O)oc3ccccc32)cc1OCC | 7.33
Nc1ccccc1Nc1ccccc1 | -9.71
COc1ccc(OCc2cc(C(=O)N3CCC(c4ccccc4)CC3)no2)c(Cl)c1 | -3.22
Cc1ccc(C(=O)CSc2nnc(-c3ccccc3)n2-c2ccccc2)o1 | 4.53
COc1ccccc1N(CC(=O)NCc1ccccc1C)S(=O)(=O)c1ccc(C)cc1 | -3.78
COCCSc1nnc(NC(=O)C2CC(=O)N(c3ccc(Cl)cc3)C2)s1 (centres unmarked) | 5.22
Cc1ccc(C(=O)Nc2ccc(S(=O)(=O)N3CCOCC3)cc2)cc1Br | 5.92
COc1ccc(C)cc1S(=O)(=O)N1CC(C)OC(C)C1 (centres unmarked) | 15.2
CCCN(CCC)CC(O)COc1ccccc1C(=O)Nc1ccccc1.Cl (centres unmarked) | -35.8
Cc1oc2cc3oc(=O)c(CCC(=O)N4C[C@H]5C[C@@H](C4)c4cccc(=O)n4C5)c(C)c3cc2c1C | -5.27
COc1cc([C@@H]2[C@H]3CNCC=C3C(C#N)=C(N)C2(C#N)C#N)ccc1OC(C)C | 3.66
COc1ccc(NC(=O)CSc2nc3ccccc3nc2N2CCOCC2)cc1 | 5.65
CCc1ccccc1NC(=O)C1(S(=O)(=O)c2ccc(C)cc2)CC1 | -17.8
O=C1c2ccccc2C(=O)N1c1ncc(Cc2ccc(Cl)cc2)s1 | 17.6
O=C(CSc1nc(=O)n2ccccc2n1)N1CCCc2ccccc21 | 7.16
Cc1cccc(C)c1NC(=O)CSc1nnc(-c2cccnc2)o1 | 11.8
Cc1ccsc1/C=N\NC(=O)c1ccc2c(c1)OCO2 | 3.91
COc1ccccc1C(=O)NC(=O)COc1cc(Cl)ccc1Cl | 10.4
CC(C)CC(NS(=O)(=O)OCC(Cl)(Cl)Cl)c1ccccc1 (centres unmarked) | 6.1

Compound | hERG current change (%, negative = inhibition) at 1uM [%]
COCCSc1nc2c(c(=O)[nH]c(=O)n2C)n1CCCc1ccccc1 | 2.78
O=C(COc1cccc(C(F)(F)F)c1)Nc1cccnc1 | 12.4
CCc1ccccc1NC(=O)CSc1nnc(CCNC(=O)OC(C)(C)C)o1 | 12.6
Cn1c(=O)c2c(nc(N3CCN(c4ccccc4)CC3)n2CCCc2ccccc2)n(C)c1=O | 14.2
CC(=O)N[C@H]1C(O)O[C@H](CO)[C@@H](O)[C@@H]1O (some centres unmarked) | 10.3
Cc1ccc(-c2nn(-c3ccc(F)cc3)cc2C(=O)NC2CCC(O)CC2)cc1 (centres unmarked) | 16.2
O=C(O)COc1ccc(-c2nccc(-c3cccs3)n2)cc1 | 2.67
O=C(Cc1ccc(Cl)c(Cl)c1)NC1CCCCCC1 | 10.8
O=C(NCc1ccccn1)C(=O)C1C(=O)Nc2ccccc21 (centres unmarked) | 12.4
O=C(CSc1nnc(NC(=O)c2ccccc2)s1)NCc1ccco1 | 13.8
CCN1C(=O)[C@H]2[C@@H](c3ccc(-c4ccc(F)cc4)c(OC)c3)N3CCC[C@@]3(C(=O)OC)[C@H]2C1=O.O=C(O)C(F)(F)F | 18.4
Cc1nc(NC(=O)c2cccc(Cl)c2)sc1-c1csc(Nc2cccc(Cl)c2)n1 | 5.12
O=C1CCN(S(=O)(=O)c2ccc(Cl)cc2)CCN1 | 5.06
COC(=O)c1ccc(NC(=O)CCc2c(C)nc3ncnn3c2C)cc1 | 13.7
CN(C)CCNC(=O)CNC(=S)N(Cc1ccccc1)Cc1ccccc1F | -1.59
CCCN(Cc1nnc(-c2ccccc2Cl)o1)C(=O)c1cc([N+](=O)[O-])cc([N+](=O)[O-])c1 | -26.8
CC(C)CNC(=S)N1CCN(C)CC1.O=C(O)C(=O)O | 13.6
CC(C)(C)NC(=O)C(c1cccs1)N(C(=O)C(=O)NC1CCCC1)c1ccccc1F (centres unmarked) | 10.3
O=C(/C=C/c1ccc(Cl)c(Cl)c1)NC1=NCCS1 | 17.7
COC(=O)/C=C(\C)NC(=O)c1cccs1 | 9.88
O=C(COC(=O)CCC(=O)Nc1nccs1)NCc1ccco1 | 10.5
CCOc1cc(CNC2CCCC2)cc(Cl)c1OCc1ccc(F)cc1.Cl | 12.7

Compound | hERG current change (%, negative = inhibition) at 1uM [%]
O=C(COC(=O)c1ccc([N+](=O)[O-])o1)Nc1cccc(S(=O)(=O)N2CCOCC2)c1 | -0.328
c1cc(C2OCCN2CC2COC3(CCCC3)O2)ccn1 (centres unmarked) | 8.3
CCOC(=O)[C@H](CCc1ccccc1)N[C@@H](C)C(=O)N1CCC[C@@H]1C(=O)O.O=C(O)/C=C\C(=O)O | 12.2
Cc1nn(C)c(C)c1NS(=O)(=O)c1ccccc1 | 14.8
CC1(C)Oc2ccc(NC(=O)C3COc4ccccc4O3)cc2O1 (centres unmarked) | 7.61
Cc1ccc(CNC(=O)Cn2cnc3cc([N+](=O)[O-])ccc3c2=O)cc1 | -3.95
O=C(COc1ccc(Cl)cc1Cl)N1CCCCCC1 | 6.67
Fc1ccc(NC(=S)N2CCn3cccc3C2c2cccnc2)cc1 (centres unmarked) | -2.7
CC(C)N1C(=O)CCC1C(=O)NCc1ccc(F)cc1Cl (centres unmarked) | 15.5
COCCCN1C2=C(C(=O)CC(C)(C)C2)C(c2ccc(OC)c(OC)c2)C2=C1CC(C)(C)CC2=O | 12.5
CCC1CCCCN1C(=O)COc1ccccc1NC(C)=O (centres unmarked) | 20.1
COc1ccc(-c2nnn(CC(=O)N(CC(=O)NC3CCCC3)c3ccccc3F)n2)cc1OC | 13.2
COc1ccc(-c2csc(NC(=O)CS(=O)(=O)c3ccccc3)n2)cc1 | 13.4
COC(=O)c1cc(S(=O)(=O)N2CCN(c3cccc(Cl)c3)CC2)c[nH]1 | -0.4
Cc1nc2c(-c3ccc(F)cc3)c(C)[nH]n2c(=O)c1Cl | 9.5
CCOc1ccccc1Nc1ccc2nonc2c1[N+](=O)[O-] | 13.1
CCC(C)n1c(SCC(=O)NCc2ccco2)nnc1-c1cccc(S(=O)(=O)N2CCOCC2)c1 (centres unmarked) | -0.662
CCOC(=O)C1CCN(C(=O)c2cc3c(=O)n4cccc(C)c4nc3s2)CC1 | 6.68
COc1ccc(C(=O)N/N=C\c2coc3ccccc3c2=O)cc1 | 14.6
O=C(CCc1nnc2ccc(NCc3ccccc3Cl)nn12)NCC1CCN(C2CCCC2)C1 (centres unmarked) | 11.9
Cc1cc(F)ccc1S(=O)(=O)N1CCCCC1CCNC(=O)C(=O)NCCN1CCOCC1 (centres unmarked) | 12.4
CCCCn1cnc2sc3c(c2c1=N)CCCC3 | -8.82

Compound | hERG current change (%, negative = inhibition) at 1uM [%]
CCn1c(C)c(C(=O)Nc2ccc(OC)cc2)c2cc(OC)ccc21 | 16.1
CC1(C)Cc2nc3oc4c(=O)n(CC(=O)Nc5ccc(Cl)cc5)cnc4c3cc2CO1 | 16.1
CCOC(=O)CNC(=O)Cn1cnc2ccc(S(=O)(=O)N3CCC(C)CC3)cc2c1=O | 8.11
CCCC(C(=O)NC(C)(C)CC)N(CC1CCCO1)C(=O)CNS(=O)(=O)c1ccc(F)cc1 (centres unmarked) | -12.1
Cc1cc(C)c2nc(N(CCCN(C)C)C(=O)c3ccc(S(=O)(=O)N4CCCCCC4)cc3)sc2c1.Cl | 14.2
CCc1c(C)[nH]c2c(C)cccc2c1=O | 13.1
COC(=O)C1=C(c2ccc(F)cc2OCc2ccccc2)C[C@@H]2CC[C@H]1N2C(=O)NC1Cc2ccccc2C1 | 11.5
CN1CC(=O)N(CC(=O)Nc2cc(Cl)cc(Cl)c2)C1=O | -15.5
CN(Cc1ccccc1)C(=O)CCC(=O)N(C)Cc1ccccc1 | 0.498
O=C1C2C3C=CC(O3)C2C(=O)N1CC(O)c1ccccc1 (centres unmarked) | 5.01
CC(C)(C)NCC(O)COCc1ccc(Cl)cc1.Cl (centres unmarked) | 7.2
CCN(Cc1ccccc1)C(=O)Cn1cc2c(n1)CCCC2 | 4.9
C/C(Cl)=C/CC1(CN2CCCC2=O)C(=O)NC(=O)NC1=O | 8.94
Cc1ccc(NC(=S)Nc2ccccn2)c(C)c1 | 5.97
Cc1ccc(S(=O)(=O)N2CCCCC2)cc1C(=O)OC1CCCCC1=O (centres unmarked) | 3.78
CCOC(=O)C1CCN(C(c2cccnc2)c2c(NC(=O)c3ccco3)sc(C)c2C)CC1 (centres unmarked) | 5.23
O=C(NCc1ccc2c(c1)OCO2)c1ccc(Br)o1 | 16.1
Cc1cccc(N/N=C(\C#N)S(=O)(=O)C(C)(C)C)c1 | 2.93
[Cl-].[NH3+]CCCn1c(C(=O)c2ccc(Cl)cc2)c2ccc(C(F)(F)F)cc2[n+]1[O-] | -80.9
CC(=O)Nc1ccc(NS(=O)(=O)c2ccc(-c3cnc(C4CC4)o3)cc2)cc1 | 10.4
